The target of this test is LIP (lamprey immune protein) (Lethenteron camtschaticum, UniProt K7WEH5). The conditions noted are these: PBS pH 7.4, 25 °C; 1:1 binding model; soluble SM as analyte.

Substance sphingomyelin [SM] returned a Kd of 10.8 µM.

What is called Kd is the concentration at which binding is half-saturated. A high value points to weaker binding.

The record behind these values is PMC6537362, “Crystal structure of a cytocidal protein from lamprey and its mechanism of action in the selective killing of cancer cells” (Cell Communication and Signaling : CCS, 2019).
